Results from publication PMC4336329 (PLoS ONE, 2015).
Screen size: about 310,000 compounds; about 2,200 (0.71%) showed an effect of 50% or more. Effects have a minus sign here. This is one part of the list.

What follows are compounds tested against human ether-à-go-go-related gene (hERG) potassium channel (human, UniProt Q12809) (assay: primary screen, population patch clamp on CHO cells stably expressing hERG).
human ether-à-go-go-related gene (hERG) potassium channel, sequence (Q12809 whole entry, looked up): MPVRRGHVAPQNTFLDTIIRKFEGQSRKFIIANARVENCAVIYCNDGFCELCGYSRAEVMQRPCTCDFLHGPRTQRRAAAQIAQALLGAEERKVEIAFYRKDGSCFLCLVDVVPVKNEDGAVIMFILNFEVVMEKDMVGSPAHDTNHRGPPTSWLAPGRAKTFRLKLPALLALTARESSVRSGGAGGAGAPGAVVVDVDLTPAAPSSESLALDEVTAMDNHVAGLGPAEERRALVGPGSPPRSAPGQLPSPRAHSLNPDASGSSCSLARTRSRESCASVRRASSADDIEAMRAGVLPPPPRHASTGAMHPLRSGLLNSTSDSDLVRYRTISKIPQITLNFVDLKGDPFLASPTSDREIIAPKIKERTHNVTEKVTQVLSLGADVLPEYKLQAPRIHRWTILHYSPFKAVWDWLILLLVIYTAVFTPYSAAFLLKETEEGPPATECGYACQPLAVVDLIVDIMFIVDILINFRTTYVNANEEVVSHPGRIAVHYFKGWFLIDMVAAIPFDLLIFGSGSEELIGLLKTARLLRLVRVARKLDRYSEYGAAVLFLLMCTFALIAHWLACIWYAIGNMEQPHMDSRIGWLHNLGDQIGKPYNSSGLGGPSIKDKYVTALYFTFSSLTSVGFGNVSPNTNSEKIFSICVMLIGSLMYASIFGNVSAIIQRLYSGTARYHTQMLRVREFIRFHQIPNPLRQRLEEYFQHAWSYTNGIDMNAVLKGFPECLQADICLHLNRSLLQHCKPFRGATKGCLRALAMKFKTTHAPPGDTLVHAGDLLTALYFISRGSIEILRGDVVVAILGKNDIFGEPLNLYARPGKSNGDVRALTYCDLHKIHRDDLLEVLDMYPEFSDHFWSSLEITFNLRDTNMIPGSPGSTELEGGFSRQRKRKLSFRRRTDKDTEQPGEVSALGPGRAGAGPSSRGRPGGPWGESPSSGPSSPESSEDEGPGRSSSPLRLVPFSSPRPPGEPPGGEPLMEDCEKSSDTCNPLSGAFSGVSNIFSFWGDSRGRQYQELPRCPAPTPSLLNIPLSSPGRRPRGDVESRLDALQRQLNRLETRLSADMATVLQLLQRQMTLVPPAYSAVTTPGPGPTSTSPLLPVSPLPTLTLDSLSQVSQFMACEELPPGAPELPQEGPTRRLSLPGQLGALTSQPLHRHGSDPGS

Compound | hERG current change (%, negative = inhibition) at 1uM [%]
COc1ccc(NC(=O)C2CCN(S(=O)(=O)c3c(C)noc3/C=C/N(C)C)CC2)cc1 | 3.14
CC(C)Cc1ccc(/C=C/C(=O)NC2CC2)cc1 | -0.331
O=C(NCC1CCCO1)c1ccc(Cl)c(S(=O)(=O)N2CCCCC2)c1 (centres unmarked) | -6.97
Cc1ccc(NC(=O)C/C(N)=N/OC(=O)c2ccccc2)cc1 | 22
CCc1cccc(CC)c1NC(=O)CSc1nnc(C(C)C)n1CC | 11.1
O=C(COC(=O)c1ccc(S(=O)(=O)N2CCCC2)cc1)NCc1ccco1 | 4.7
COc1ccc(CCn2c(C)cc3c(c2=O)C(c2ccc4c(c2)OCO4)C(C#N)=C(N)O3)cc1OC (centres unmarked) | 1.14
CCOc1ccc(C(C)=O)cc1COC(=O)c1cnc(Cl)c(Cl)c1 | 10.1
CCN(CC)C(=O)COCc1cc(-c2ccc3c(c2)OCO3)on1 | 11
CCn1cc(C(=O)OC)c(=O)c2cc(S(=O)(=O)N(C)C3CCCCC3)ccc21 | 3.91
CCOc1cc(C2NC(=O)NC(c3ccccc3)=C2C(C)=O)ccc1OC(C)=O (centres unmarked) | 20.6
CC(C)(C)n1cnc2cc(NC(=O)c3ccccc3)ccc21 | 10.9
CCOC(=O)N1CCN(S(=O)(=O)c2ccc3c(c2)CCN3C(=O)C2CCC2)CC1 | 4.95
Cc1cc([N+](=O)[O-])ccc1NC(=S)NC1CCCC1 | 7.52
Cc1cc(C)cc(CC2CC(=O)N(c3ccc4c(c3)OCCO4)C2=O)c1 (centres unmarked) | 9.97
COc1cc(CN2CCNC(=O)C2CC(=O)NC2CCCCC2)cc(OC)c1 (centres unmarked) | 5.85
CC(=O)N1c2ccc(S(=O)(=O)N3CCCC(C(=O)Nc4ccc(F)cc4)C3)cc2CC1C (centres unmarked) | 9.36
O=C1CCCc2c1cc(-c1ccccc1)n2-c1ccc(O)cc1 | 6.74
Cc1cc(C)cc(NC(=O)CSc2nnc(CNC(=O)c3ccco3)n2C)c1 | 14.2
O=C(NC(=S)Nc1ccc(S(=O)(=O)Nc2nccs2)cc1)c1ccccc1F | 19.6
CCOC(=O)N1CCC(NC(=O)Cn2c3c(c(-c4ccccc4Cl)cc2=O)CCC3)CC1 | 9.3
COc1cccc(CN2CCNC(=O)C2CC(=O)N(C)CCc2ccccn2)c1OC (centres unmarked) | 12.6
COc1ccc(NC(=O)CCN2CCN(S(=O)(=O)c3cc(Cl)ccc3Cl)CC2)cc1 | 3.07

Compound | hERG current change (%, negative = inhibition) at 1uM [%]
O=C(NCC1CCCCC1)c1cc(S(=O)(=O)N2CCOCC2)ccc1F | 11.2
CCOC(=O)C1CCN(c2c(NCCCN(CC)Cc3ccccc3)c(=O)c2=O)CC1 | -6.06
CC(OC(=O)CNC(=O)c1cccs1)C(=O)Nc1ccc(S(N)(=O)=O)cc1 (centres unmarked) | 4.95
Cc1cc(C)nc(Nc2n[nH]c(-c3ccccc3C)n2)n1 | -2.47
CCOC(=O)CCc1c(C)nc(SCc2ccc(C(=O)O)cc2)c(C#N)c1C | 8.92
O=C(Cn1nc2n(c1=O)-c1ccccc1SC2)N/N=C/c1cccnc1 | 2.47
COc1ccc(-c2ccc(CCC(=O)O)n2-c2ccc(O)cc2)cc1 | 8.91
CCC(C)(C(=O)NC1CCCC1)N(C(=O)c1cnccn1)c1ccccc1 (centres unmarked) | 10.3
CCCn1c2ccc(F)cc2c2nnc(SCCN3CCCCC3)nc21 | -33.3
Nc1cccc(-n2cccc2)c1 | 16.6
CN(C)CCNc1cnn(-c2ccccc2)c(=O)c1Cl | 11.8
Cc1ccc(NC(=O)CSc2cccc3cccnc23)c(C)c1 | 13.5
O=C1C(C23CC4CC(CC(C4)C2)C3)C(=O)N(c2ccccc2)N1c1ccccc1 | 8.68
COc1cccc(-n2nnnc2SCC(=O)NCCc2ccccc2)c1 | 4.57
CSc1nnc(-c2ccc(Cl)cc2Cl)o1 | 10.3
Cc1ccc(S(=O)(=O)c2c(C)nn(C(C)(C)C)c2OC(=O)C2CCCC2)cc1 | 2.19
CCC(=O)c1ccc(-c2ccccc2)cc1 | 13.8
Cn1c(=O)c2c(ncn2CC(COCc2ccccc2)OCc2ccccc2)n(C)c1=O (centres unmarked) | 10.2
C/C(=N\NC(=S)NCCc1ccccc1)c1ccc(Cl)cc1 | 7.8
COc1cc2c(c(OC)c1OC)-c1ccc(C(=O)O)cc1[C@@H](NC(C)=O)CC2 | 7.51
CCCCNc1cc(F)nc(N)n1 | 6.13
COc1ccc(CCNC(=O)COc2ccc(S(=O)(=O)N3CCOCC3)cc2C)cc1 | 2.43
Cc1ccc(S(=O)(=O)N2CCOCC2)cc1C(=O)OCc1nnc(-c2ccccc2)o1 | -12

Compound | hERG current change (%, negative = inhibition) at 1uM [%]
O=C(NCc1ccccc1)C1(CC2CC(c3ccccc3)=NO2)CCNCC1 (centres unmarked) | 13.1
CC1CCN(C(=O)c2cccc(S(=O)(=O)N3CCN(c4ccccc4)CC3)c2)CC1 | 7.37
CN(Cc1ccccc1)Cc1nc2c(c(=O)n(C)c(=O)n2C)n1CCCc1ccccc1 | -0.945
CCOC(=O)C1CCN(c2ncnc3c2c(-c2ccccc2)cn3-c2ccc(C)cc2)CC1 | 11.5
CCOc1ccc(NC(=O)Nc2cc(C)on2)cc1 | 11.2
Cc1cccc(C)c1OCCn1nnc2ccccc21.Cl | 11.9
Cc1ccc2[nH]c(CNC(=O)c3ccc(F)cc3)cc2c1 | 15.3
O=[N+]([O-])c1ccc(N2CCN(CCO)CC2)cc1NCc1ccco1 | 0.474
COc1ccc(C)cc1S(=O)(=O)N1CCC(C(=O)NC2CCCC2)CC1 | 14
CCOC(=O)c1ccccc1NC(=O)COC(=O)CCC1CCCC1 | -1.84
O=C1C2CCCCC2C(=O)N1Cc1ccccc1 (centres unmarked) | 10.5
CC(C)(C)CN1C(N)=NC[C@H]1Cc1ccc(O)cc1 | 13.3
Cc1nc(N2CCOCC2)nc(N2CCCC2)c1[N+](=O)[O-] | 7.42
O=C(NCCc1ccc(F)cc1)NC12CC3CC(CC(C3)C1)C2 | 10.3
CCN(CC)CC.COc1ccc(OC)c(-n2c(=S)[nH]c3c(sc(=S)n3-c3ccccc3C)c2=O)c1 | 8.87
COc1cc(C(=O)NCC(=O)N2CC=C(c3ccccc3)CC2)cc(OC)c1OC | -23.2
Cc1cc(NC(=O)COC(=O)c2ccc(S(=O)(=O)N3CCCC3)cc2)no1 | 12.3
CN(C)S(=O)(=O)c1ccc(N2CCCC2)c(C(=O)N2CCN(c3ccc([N+](=O)[O-])cc3)CC2)c1 | -84
C=CCNC(=O)c1ccc(Cn2cc(C(F)(F)F)ccc2=O)cc1 | 9.57
Cc1cccc(NC(=O)CSCC(=O)Nc2ccccc2N2CCCCC2)c1 | 1.97
CCOC(=O)C(=O)Nc1ccc(S(=O)(=O)N2CCOCC2)cc1OC | 6
COc1ccc(S(=O)(=O)NNc2nc(C)cc(C)n2)cc1[N+](=O)[O-] | 11.1
CC1(C)C(=O)OC(c2ccccc2)C2(CCCC2)C1=O (centres unmarked) | 9.99

Compound | hERG current change (%, negative = inhibition) at 1uM [%]
Cc1ccc(S(=O)(=O)CCC(=O)OCC(=O)c2c(C)[nH]c3ccccc23)cc1 | 9.5
FC(F)(F)c1cccc(Oc2cc(C(F)(F)F)nc(-c3ccccn3)n2)c1 | 2.26
CCn1c(N)c(C(=O)NC)sc1=S | -1.43
O=C(C1CCCN(Cc2ccccc2[N+](=O)[O-])C1)N1CCCCC1.O=C(O)C(=O)O (centres unmarked) | 14.8
CN1C(=O)[C@@H]2[C@H](C1=O)[C@@H]1C(=O)Nc3ccccc3C(=O)N1[C@@H]2c1ccc(F)cc1 | 9.59
Cc1nnc2n1N=CC=C(C(C)(C)C)S2 | 4.37
CCC(Oc1ccccc1)C(=O)N1CC(C)CC(C)C1 (centres unmarked) | 18.1
CC(C)Nc1nc(NC(N)=S)nc(NC(C)(C)C)n1 | 7.09
S=C(NCc1cccnc1)c1ccccc1 | 8.35
Nc1nc(CSc2ncn(-c3ccccc3)n2)cs1 | -0.27
CCCN1CCC(=NNC(=O)CSc2cc(C)c(Br)cc2C)CC1 | -4.12
COCCn1c(C23CC4CC(CC(C4)C2)C3)n[nH]c1=S | 5.55
Nc1c(-c2ccc(F)cc2)cnc2ncnn12 | 12.9
COc1ccc(-c2oc3ccc(-c4cc(OC)c(OC)c(OC)c4)cc3c2C#Cc2ccsc2)cc1 | 11.2
CC(NC(=O)c1ccccc1Cl)C(=O)N1CCN(Cc2ccc3c(c2)OCO3)CC1 (centres unmarked) | 18
Fc1ccc(CN2CCN(c3ncccn3)CC2)c(F)c1 | 18.3
C/C(=N/OC(=O)c1c(-c2c(Cl)cccc2Cl)noc1C)c1cnccn1 | 2.95
O=C(CSc1n[nH]c(-c2ccncc2)n1)Nc1ccc(Cl)cc1 | 10.6
CCCC(=O)Nc1ccc2c(c1)c1ccccc1n2CC | 13.8
O=C(c1ccccc1)N1CCN(C(=O)c2ccc3c(c2)OCCO3)CC1 | 0.942
